Read counts are not given, so values of variants with three or more changes are uncertain.
B1: OR4K15 (parent)
chain: GUUAACGGUCAUAGGCCAUGGAAACUAGGAGCACCAUUUCGCUGCCAGUGAAGAAAUGAACAAAGAAAAUCUGGGCCAGGCAGGCAUCAAAAGAAAUAGUCUUGCGCUCAACCAGAAAGUCUGUAAUCAUUUUAAGGGUA

Variants of: B1
Experiment: self-cleavage, relative activity (ratio to wild type); higher = more cleavage; in vitro, sequencing; the parent is a self-cleaving ribozyme
For A33U A60C A62U, the self-cleavage was 2.03. Work on A33U A60G A114U yielded a self-cleavage of 0.07. Work on A33U A60G U132C yielded a self-cleavage of 0.8. In the case of A33U A62G U127C, the self-cleavage is reported as 0.21. In the case of A33U A64G U130C, the self-cleavage is reported as 1.33. In the case of A33U A67G A82G, the self-cleavage is reported as 0.57. A33U A67U A96G showed a self-cleavage of 2.31. Work on A33U A68G U103A yielded a self-cleavage of 1.59. For A33U A68G U131C, the self-cleavage was 0.89. For A33U A78U A96G A126G, the self-cleavage was 0.21. With A33U A78U U102C the self-cleavage was 1.52. Work on A33U A89G A95G A118G yielded a self-cleavage of 1.95. In the case of A33U A90G U120C, the self-cleavage is reported as 1.11. A33U A92G A118U gave a self-cleavage of 0.72. A33U A94U U97C U127C showed a self-cleavage of 0.54. Variant A33U A110U A117G has a self-cleavage of 1.34. A33U C34A U103C U108C U139C gave a self-cleavage of 0.01. For A33U U37C A82G A89U U100C A116U, the self-cleavage was 0.15. Variant A33U U37G U57A A114G has a self-cleavage of 0.23. A33U U38C U39C A63G A64G G74U A78U A94G U132A showed a self-cleavage of 0.2. A33U U38C U70G A86U A126G U130C showed a self-cleavage of 1.29. For A33U U39C A51C A69G C71G, the self-cleavage was 0.25. A33U U39C A78G U108C showed a self-cleavage of 0. Variant A33U U43A A60G has a self-cleavage of 1.73. A33U U43G A69G showed a self-cleavage of 1.45. Work on A33U U49C A117G yielded a self-cleavage of 2.1. Work on A33U U49C U132A yielded a self-cleavage of 2.09. With A33U U87C A126G the self-cleavage was 0.38. C34A U38C A86G A94G U132A gave a self-cleavage of 1.66. Work on C34A U122C U139C yielded a self-cleavage of 0. For C34G U72A A90G A96G, the self-cleavage was 0.13. Work on C34U A36U A134G yielded a self-cleavage of 1.67. C34U A52G A91G U100C gave a self-cleavage of 2.64. Variant C34U A54U A95G A126G has a self-cleavage of 1.22. C34U A64G U131A showed a self-cleavage of 1.39. For C34U A68G A117U U131C U132C, the self-cleavage was 1.39. Variant C34U A117G U131C has a self-cleavage of 1.15. Variant C34U U122A U127C has a self-cleavage of 1.11. In the case of C35A A51G A68G A94G A117G, the self-cleavage is reported as 1.7. Variant C35A A89G A92G U108C A117G has a self-cleavage of 0. C35A U38C A63G showed a self-cleavage of 1.87. For C35G A54G U100C U103C, the self-cleavage was 1.91. In the case of C35U A51C A82U G83A A95U, the self-cleavage is reported as 0.04. C35U A51G A62G U100A gave a self-cleavage of 0.65. C35U A52G A117G A129G gave a self-cleavage of 0.56. Variant C35U A54U A91G A94G U131C U139C has a self-cleavage of 0.88. Variant C35U A59G A94G A110G has a self-cleavage of 0.04. In the case of C35U A60U U70A, the self-cleavage is reported as 0.65. C35U A90G A116G showed a self-cleavage of 0.1. Work on C35U G53A U87G A114U yielded a self-cleavage of 0.02. C35U G75A A134G gave a self-cleavage of 0.03. In the case of C35U U37C A60G, the self-cleavage is reported as 1.49. For C35U U38C U57A A60G A92G U102C, the self-cleavage was 1. C35U U39A A111G A126G gave a self-cleavage of 0. Variant C35U U43A A111C A114G has a self-cleavage of 0.01. With C35U U43C A126G the self-cleavage was 0.52. C35U U57A G58U showed a self-cleavage of 0.46. C35U U72A A95G showed a self-cleavage of 0.19. In the case of A36C A51G G80A A111G U127C, the self-cleavage is reported as 0. In the case of A36C A59G A95C U131C, the self-cleavage is reported as 0.62. A36C A63U U124C gave a self-cleavage of 2.22. For A36C A66U A95G U97C, the self-cleavage was 1.28. Variant A36C A67G A86G has a self-cleavage of 1.68. Work on A36C A67G U122C A135G yielded a self-cleavage of 1.33. For A36C A68G A125G, the self-cleavage was 0.58. For A36C C40A A51G A89G A94G A96G, the self-cleavage was 1.47. A36C U37C A89C showed a self-cleavage of 0.92. For A36C U38C A94G A135G, the self-cleavage was 2.4. For A36C U38C A94G U103C, the self-cleavage was 0.38. Variant A36C U103C U120C U133C has a self-cleavage of 0.62. Variant A36G A47G A52G A92G has a self-cleavage of 0.91. Variant A36G A47G A60G A67G A89C has a self-cleavage of 0.57. Variant A36G A47G U103C U132C has a self-cleavage of 0.64. A36G A47U A59U U102C A116G showed a self-cleavage of 0.75. Variant A36G A52G A56G A95G A135U has a self-cleavage of 0.73. A36G A52U A66U A110U U127C gave a self-cleavage of 0.48. For A36G A52U C88U A98U A126G, the self-cleavage was 1.09. For A36G A54G A69G U70C, the self-cleavage was 0.36. In the case of A36G A54G A98G U100C U108C U132C, the self-cleavage is reported as 0. A36G A55G A64G A86U U108C showed a self-cleavage of 0. Work on A36G A56G U72C A78G A125U yielded a self-cleavage of 0.23. A36G A59G A82G A90G U122G showed a self-cleavage of 0.2. Work on A36G A59G G79A A89G yielded a self-cleavage of 0.15. Work on A36G A60G A62G U120C yielded a self-cleavage of 0.54. Work on A36G A60G A68G yielded a self-cleavage of 2.12. Variant A36G A60G A89G A92G G136A has a self-cleavage of 2.21. Variant A36G A60G U103C has a self-cleavage of 0.09. Variant A36G A62G A64G U132C has a self-cleavage of 1.96. A36G A62G A66G A91G gave a self-cleavage of 0.91. Variant A36G A63G A96G has a self-cleavage of 1.84. A36G A63G U132C showed a self-cleavage of 1.95. With A36G A63U A94U the self-cleavage was 2.35. A36G A63U U131C showed a self-cleavage of 1.12. Variant A36G A66G A95G has a self-cleavage of 1.61. Work on A36G A67G A90G U124C yielded a self-cleavage of 1.18. Variant A36G A69G A96U U103A has a self-cleavage of 0.49. A36G A82G A86U gave a self-cleavage of 1.41. In the case of A36G A82U U131G, the self-cleavage is reported as 0.3. With A36G A86G U102C the self-cleavage was 1.56. In the case of A36G A89G A126G A129G, the self-cleavage is reported as 0.41. Work on A36G A89G U122A yielded a self-cleavage of 1.64. Work on A36G A90G A117G yielded a self-cleavage of 2.44. With A36G A90G U120C the self-cleavage was 0.31. With A36G A91G A95G U120A the self-cleavage was 2.91. A36G A91G A114U showed a self-cleavage of 0.05. In the case of A36G A91G U102C A110G, the self-cleavage is reported as 0.18. A36G A91G U108A gave a self-cleavage of 0.03. A36G A91U A110G U124C G138U showed a self-cleavage of 0.06. A36G A94U U102A showed a self-cleavage of 0.97. A36G A98G U100C gave a self-cleavage of 2.37. For A36G A114G A116G A118G, the self-cleavage was 0.12. A36G A114G A129G gave a self-cleavage of 0.25. In the case of A36G A116G U124C U133C, the self-cleavage is reported as 0.28. For A36G A118G U139G, the self-cleavage was 1.14. Work on A36G A129G U139C yielded a self-cleavage of 1.46. For A36G C40A G44A A60U A86G, the self-cleavage was 1.63. For A36G C46A A94G, the self-cleavage was 1.51. For A36G C128U A129G, the self-cleavage was 1.92. Work on A36G G44A A90G A96G A116G yielded a self-cleavage of 0.21. A36G G50U A68G U87C gave a self-cleavage of 1.84. In the case of A36G U37C A56G G137A U139C, the self-cleavage is reported as 0.28. A36G U37C A82U gave a self-cleavage of 0.34. With A36G U38A A63U A66G the self-cleavage was 1.53. A36G U38A A78G U100C showed a self-cleavage of 0.1. Variant A36G U39C A60G G79A C112A has a self-cleavage of 0.02. Variant A36G U39C A63G A91G has a self-cleavage of 1.18. Variant A36G U43C U49C A56G U100C A129C has a self-cleavage of 1.44. With A36G U43C U103C the self-cleavage was 0.81. A36G U49C A56G A67G gave a self-cleavage of 1.01. A36G U49C A62C A67G U131C showed a self-cleavage of 1.34. A36G U70C A89G gave a self-cleavage of 1.21. Variant A36G U70C U132C has a self-cleavage of 0.54. Work on A36G U87C A92G U124C yielded a self-cleavage of 0.68. A36G U87C A135G showed a self-cleavage of 1.62. Variant A36G U87C G104A has a self-cleavage of 0.02. With A36G U87C U97A U120A the self-cleavage was 1.57. With A36G U100C A111G the self-cleavage was 0.02. A36G U100C U108C A117G A140G gave a self-cleavage of 0.01. Variant A36G U102C U124C has a self-cleavage of 1.17. In the case of A36G U108C A117G, the self-cleavage is reported as 0. Variant A36G U127A U130C U131C has a self-cleavage of 2.67. In the case of A36U A47G A91G A117G A129U, the self-cleavage is reported as 0.15. With A36U A47U U139C the self-cleavage was 0.65. A36U A51G A68G showed a self-cleavage of 1.95. For A36U A51G U130C, the self-cleavage was 1.72. Variant A36U A52G A78G U122C has a self-cleavage of 0.11. Work on A36U A52G A111U yielded a self-cleavage of 0.05. Variant A36U A52G A135G has a self-cleavage of 2.14. Work on A36U A52U A116U U122C yielded a self-cleavage of 0.18. For A36U A54G A90G U132A, the self-cleavage was 0.89. For A36U A54U A86U C128U, the self-cleavage was 1.86. For A36U A55G U103A, the self-cleavage was 0.6. Work on A36U A55G U127C yielded a self-cleavage of 1.78. With A36U A55U A64G the self-cleavage was 1.26. Variant A36U A56G A59G A135G has a self-cleavage of 0.93. In the case of A36U A56G A62G A78C, the self-cleavage is reported as 0.47. A36U A56G A68G A126U U130C showed a self-cleavage of 0.94. A36U A56G A68G U97C U120A gave a self-cleavage of 0.15. In the case of A36U A56U U132C, the self-cleavage is reported as 2.22. Work on A36U A59U U108C yielded a self-cleavage of 0.01. For A36U A62G A86G A118G, the self-cleavage was 1.26. For A36U A62G A116G A118G U124C A135G, the self-cleavage was 0.3. A36U A64G A94G gave a self-cleavage of 0.84. With A36U A64G U87A the self-cleavage was 1.79. Variant A36U A78G G115A has a self-cleavage of 0.12. Work on A36U A78U C88A A116G U122C yielded a self-cleavage of 0.06. Work on A36U A82G A111G A140G yielded a self-cleavage of 0.

From the RNAGym collection of RNA variant scans (doi:10.7554/elife.90254)
